Our source for the binding values is PMC6093180.

Chains of the proteins cited; added tags and fusions are not shown. Lines headed by an entry give the natural chain unless they say otherwise; changes in a name come on top.
UniProt P08621: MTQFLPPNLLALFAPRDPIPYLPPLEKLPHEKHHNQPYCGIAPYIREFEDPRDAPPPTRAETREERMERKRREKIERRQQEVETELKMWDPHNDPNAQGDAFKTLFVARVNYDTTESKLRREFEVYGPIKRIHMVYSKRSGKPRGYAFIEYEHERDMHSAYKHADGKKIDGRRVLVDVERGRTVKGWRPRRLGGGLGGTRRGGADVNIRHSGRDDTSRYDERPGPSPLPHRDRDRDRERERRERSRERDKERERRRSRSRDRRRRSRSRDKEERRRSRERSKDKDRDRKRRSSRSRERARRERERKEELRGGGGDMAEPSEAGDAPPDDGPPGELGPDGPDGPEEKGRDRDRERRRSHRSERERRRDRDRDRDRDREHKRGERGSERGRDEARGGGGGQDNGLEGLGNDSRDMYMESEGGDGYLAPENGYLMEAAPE
UniProt P09234: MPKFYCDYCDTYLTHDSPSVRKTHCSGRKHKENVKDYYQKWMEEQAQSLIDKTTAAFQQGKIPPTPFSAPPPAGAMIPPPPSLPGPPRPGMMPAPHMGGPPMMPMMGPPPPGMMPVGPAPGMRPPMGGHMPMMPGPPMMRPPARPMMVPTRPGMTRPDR

Read-outs that look alike come from different tables or passages of the source. No constants are given. Whether binding was seen depends on the method and setting. Binding seen in cells or lysates may run through a third protein. Some binding calls cover weakened binding; strength is not graded here. For some of these results: Tags and fused reporters may be left off the sequences shown.

What all share (assay): co-IP; HeLa cells transiently transfected with GFP-tagged constructs; extracts in NET2 (50 mM Tris-HCl pH 7.5, 150 mM NaCl, 0.05% Nonidet P-40), sonicated; 2 h with Protein-G agarose beads covered with goat polyclonal anti-GFP; co-precipitated endogenous proteins seen by western blot
(In western blotting, separated proteins are transferred to a membrane and probed.)

For test [1], the target named is T1, RBM39 dd (aa 138–407), GFP-tagged (UniProt Q14498).
T1 sequence: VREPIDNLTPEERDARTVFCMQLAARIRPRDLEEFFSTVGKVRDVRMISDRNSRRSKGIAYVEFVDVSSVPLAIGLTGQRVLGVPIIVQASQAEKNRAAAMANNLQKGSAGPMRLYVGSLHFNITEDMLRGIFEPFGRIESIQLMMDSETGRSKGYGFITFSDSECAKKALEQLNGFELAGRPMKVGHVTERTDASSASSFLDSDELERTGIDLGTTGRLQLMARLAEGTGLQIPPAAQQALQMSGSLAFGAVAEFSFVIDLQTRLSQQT

In test [2] the target is T2, RBM39 dRS (aa 138–525), GFP-tagged (UniProt Q14498).
T2 sequence: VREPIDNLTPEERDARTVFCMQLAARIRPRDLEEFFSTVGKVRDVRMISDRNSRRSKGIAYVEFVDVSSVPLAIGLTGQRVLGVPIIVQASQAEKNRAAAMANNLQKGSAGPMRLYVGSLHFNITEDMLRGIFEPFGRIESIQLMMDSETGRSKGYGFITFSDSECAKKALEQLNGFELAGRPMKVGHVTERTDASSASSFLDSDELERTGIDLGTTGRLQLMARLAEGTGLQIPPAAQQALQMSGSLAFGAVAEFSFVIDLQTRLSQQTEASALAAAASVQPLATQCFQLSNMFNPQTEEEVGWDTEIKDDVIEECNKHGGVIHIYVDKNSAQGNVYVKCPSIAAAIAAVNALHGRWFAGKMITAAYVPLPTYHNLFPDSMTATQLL

Test [3] concerns the target T3, RBM39-GFP, full-length protein (UniProt Q14498).
T3 sequence: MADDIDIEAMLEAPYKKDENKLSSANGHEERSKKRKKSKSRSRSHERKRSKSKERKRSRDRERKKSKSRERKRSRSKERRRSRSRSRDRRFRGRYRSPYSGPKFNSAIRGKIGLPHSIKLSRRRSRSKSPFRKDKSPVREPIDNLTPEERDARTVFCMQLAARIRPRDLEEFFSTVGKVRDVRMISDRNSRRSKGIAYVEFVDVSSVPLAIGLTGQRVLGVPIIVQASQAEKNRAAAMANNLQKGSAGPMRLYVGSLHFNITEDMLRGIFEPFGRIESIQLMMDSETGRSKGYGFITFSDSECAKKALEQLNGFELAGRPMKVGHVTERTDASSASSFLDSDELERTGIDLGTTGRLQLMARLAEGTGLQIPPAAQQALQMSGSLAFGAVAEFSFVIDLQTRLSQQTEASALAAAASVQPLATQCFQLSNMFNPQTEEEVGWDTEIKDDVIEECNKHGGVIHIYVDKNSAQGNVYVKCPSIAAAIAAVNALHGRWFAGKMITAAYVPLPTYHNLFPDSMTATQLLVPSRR

Another test addresses U1-70K-GFP (human) (UniProt P08621).
Test [4] addresses T1, RBM39 dd (aa 138–407), GFP-tagged. This is another data set of the same source.
Test [5] deals with T2, RBM39 dRS (aa 138–525), GFP-tagged. This is another data set of the same source.
Test [6] addresses T3, RBM39-GFP, full-length protein. This is another data set of the same source.

As to “U1-70K (endogenous) (from UniProt P08621 1-437)”, the binding entry is listed as “no binding” in test [1], “no binding” in test [2] and “binds” in test [3].
Turning to “U1C (endogenous) (from UniProt P09234 1-159)”, the binding result with U1-70K-GFP (human) is recorded as “binds”.

B1: U2AF35 (endogenous) (protein, UniProt Q01081 1-240)
chain: MAEYLASIFGTEKDKVNCSFYFKIGACRHGDRCSRLHNKPTFSQTIALLNIYRNPQNSSQSADGLRCAVSDVEMQEHYDEFFEEVFTEMEEKYGEVEEMNVCDNLGDHLVGNVYVKFRREEDAEKAVIDLNNRWFNGQPIHAELSPVTDFREACCRQYEMGECTRGGFCNFMHLKPISRELRRELYGRRRKKHRSRSRSRERRSRSRDRGRGGGGGGGGGGGGRERDRRRSRDRERSGRF
On to B1, for which the binding entry was “no binding” in test [4], “no binding” in test [5] and “binds” in test [6].
